According to PubChem BioAssay AID2101 (National Center for Advancing Translational Sciences (NCATS), 2009):
Hit rate of the full screen: of about 330,000 compounds, about 300 (0.091%) were called active. The shares of active, inactive and inconclusive entries below differ from those in the screen. The call rests on the fitted dose curve; in most records, active means well fitted inhibition curve with a large enough effect; inconclusive means small, poorly fitted or top-dose-only effect, or effect the other way, or another doubt; inactive means no such curve, though single readings can be large or run the other way. No potency is given beside an inconclusive call; the fits are too rough.

Each molecule was assayed against Lysosomal acid glucosylceramidase (Homo sapiens) (UniProt P04062) (assay: qHTS Assay for Inhibitors and Activators of N370S glucocerebrosidase as a Potential Chaperone Treatment of Gaucher Disease). Details: N370S GC spleen homogenate, 4MU-glucoside fluorescence; activity change, negative = inhibition: at 59.4 µM (top of the series) unless noted.
Potency means the concentration at half of the fitted maximal effect.
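Wherever activity change, negative = inhibition is given: 0% = full enzyme activity and -100% = no enzyme basal.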

Row | SMILES | Potency | activity change, negative = inhibition
1 | CSc1ccccc1NC(=O)c1cnc2scc(C)n2c1=O | inconclusive [activator, partial curve, poor fit] | 
2 | CCn1cc(Br)c(C(=O)Nc2ccc(F)c(Cl)c2)n1 | inconclusive [inhibitor, full curve, poor fit] | 
3 | OC1(c2ccc3ccccc3c2)CCN(Cc2ccccc2)C1 (stereo not drawn) | inconclusive [inhibitor, partial curve] | 
4 | CC1CCCN(CCCNC(=O)c2coc3nc4ccccc4nc23)C1 (stereo not drawn) | inconclusive [activator, single point] | 
5 | Cc1cccc(NC(=S)NC2CCCCC2)n1 | inconclusive [activator, partial curve] | 
6 | COc1ccccc1C1CC(c2ccco2)=NN1c1ccccc1 (stereo not drawn) | inconclusive [activator, single point] | 
7 | O=C(Cc1ccc(Cl)cc1Cl)Nc1cccc(S(=O)(=O)Nc2ccccc2F)c1 | inconclusive [inhibitor, single point] | 
8 | O=C(NNC(=S)NC1CC2C=CC1C2)c1cccnc1 (stereo not drawn) | inconclusive [inhibitor, single point] | 
9 | COC(=O)C1=CN(Cc2ccc(OC)c(OC)c2)C=C(C(=O)OC)C1c1cccc(OC)c1OC | inconclusive [activator, partial curve] | 
10 | CC(Oc1cccc(Cl)c1)C(=O)Nc1cc(S(=O)(=O)N2CCCCC2)ccc1N1CCOCC1 (stereo not drawn) | inconclusive [activator, single point] | 
11 | CCCCCCN(C(=O)CCCCCN1C(=O)NC(C2CCCCC2)C(C(=O)OCc2ccccc2)=C1C)C(C(=O)NCCCC)c1ccc(OCC(=O)OC)c(C(=O)OC)c1 (stereo not drawn) | inconclusive [activator, partial curve] | 
12 | O=C1/C(=C\c2ccc(O)c(O)c2)C(c2ccccc2)=NN1c1ccccc1 |  | inactive: 4.26%
13 | COC(=O)c1ccc2c(=O)n(CCCCCC(=O)N3CCN(c4ccc(F)cc4)CC3)c(=O)[nH]c2c1 |  | inactive: 12.5%
14 | Cc1ccc(Nc2nc(N)nc(CN3CCN(Cc4ccc5c(c4)OCO5)CC3)n2)cc1Cl | inconclusive [inhibitor, full curve, poor fit] | 
15 | CCn1c(SCC(=O)N(C)c2ccccc2)nc2c([nH]c3ccccc32)c1=O | inconclusive [activator, single point] | 
16 | Cc1nnc(N2CCC(C(=O)N3CCCCC3)CC2)c2nn(-c3ccc(Cl)cc3)c(C)c12 | inconclusive [inhibitor, full curve] | 
17 | COc1cccc(C(=O)Nc2nnc(Cc3ccc(OC)c(OC)c3)s2)c1 | inconclusive [inhibitor, single point] | 
18 | COc1ccc(OC)c(NC(=S)NCCSc2ccc(C)cc2)c1 | inconclusive [activator, partial curve] | 
19 | O=C(N/N=C\c1ccc([N+](=O)[O-])o1)c1ccc(O)cc1 |  | inactive: -17.8% [at 21.6 µM]

Row | SMILES | Potency | activity change, negative = inhibition
20 | CC(C)c1cccc2cc3c(nc12)-c1cccc(=O)n1C3 | inconclusive [activator, partial curve] | 
21 | CCN(CC)S(=O)(=O)c1ccc(N2CCOCC2)c(NC(=O)c2ccc3c(c2)OCCO3)c1 | inconclusive [activator, partial curve] | 
22 | Cc1ccc(OCCCn2cc(C#N)c3ccccc32)cc1 | inconclusive [activator, partial curve] | 
23 | O=C(O)CCCCn1c(SCC(=O)Nc2ccccc2C(F)(F)F)nc2ccsc2c1=O | inconclusive [inhibitor, single point] | 
24 | Cc1nc2ccccc2nc1N1CCOCC1 | inconclusive [inhibitor, single point] | 
25 | Cc1cc2c(cc1C)C(c1cccc([N+](=O)[O-])c1)CC(=O)N2 (stereo not drawn) | inconclusive [activator, partial curve] | 
26 | CCOC(=O)C1(CCOc2ccccc2)CCN(Cc2ccc(OC)c(O)c2)CC1 | inconclusive [inhibitor, partial curve] | 
27 | Nc1c(Cl)cc(C2=NCCn3nc4cc(C(F)(F)F)ccc4c32)cc1Cl | inconclusive [inhibitor, partial curve, poor fit] | 
28 | Cc1ccc2cc(C#N)c(NCCNC(=S)NCCCN3CCOCC3)nc2c1 | inconclusive [inhibitor, partial curve] | 
29 | COc1cc(/C=C/C(=O)O)cc(S(=O)(=O)NCCCC(=O)O)c1OC |  | inactive: 7.87%
30 | O=C(C1=C[C@@H]2[C@H]3C(=O)N(c4cccc(Cl)c4)C(=O)[C@H]3[C@@H](C(=O)c3ccc(Cl)cc3)N2C=C1)c1ccccc1 | inconclusive [inhibitor, single point] | 
31 | Cc1ccc(N2C(=O)CSC2c2ccc3c(c2)OCO3)cc1 (stereo not drawn) | inconclusive [inhibitor, partial curve, poor fit] | 
32 | CC(C)c1ccc(N(C(=O)c2ccc3c(c2)OCO3)C2C=CS(=O)(=O)C2)cc1 (stereo not drawn) | inconclusive [inhibitor, single point] | 
33 | N#Cc1c(-c2ccccc2)cc(-c2ccc(O)cc2)nc1N | inconclusive [inhibitor, full curve] | 
34 | COC(=O)[C@H](Cc1ccccc1)NC(=O)O[C@@H]1C(=O)c2cc(OC)ccc2O[C@H]1c1ccc(OC)c(Br)c1 | inconclusive [activator, single point] | 
35 | COc1ccc(O[C@H]2C=C[C@@H](c3ccccc3)O[C@@H]2CON=C(C)C)cc1 |  | inactive: -0.303% [at 12.8 µM]
36 | Cc1cc(Br)cc(C)c1OCCCCN(C)C | inconclusive [inhibitor, single point] | 
37 | O=C(C1=C(O)C(=O)N(CC2CCCO2)C1c1cccc(Cl)c1)c1ccco1 (stereo not drawn) | inconclusive [inhibitor, partial curve] | 
38 | COc1ccc(C(=O)N/C(=C\c2cn(C)c3ccccc23)C(=O)OCC(C)C)cc1 | inconclusive [activator, full curve, poor fit] | 
